Whole data set: some 110,000 compounds, median “z-score” near -0.1, cut for the highest 2% near 2. Some of the results follow. Calls of active or inactive are those of the source.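 Rule for the calls: active = z-score in the third read window above 3 or below -3; inactive = the rest.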
target: Metabotropic glutamate receptor 8 (Rattus norvegicus) (UniProt P70579); experiment: mGluR8 Gi/Go-coupled signaling modulation – cell-based, rat, thallium flux, HTS, primary screen (AID 488969); conditions: HEK293 rat mGluR8, GIRK (G protein-gated inwardly rectifying potassium channel) thallium flux, FluoZin2; at 10 µM; stronger effect = higher value; submaximal glutamate (EC20) added with thallium
Sequence of UniProt P70579 (P70579 whole entry, looked up): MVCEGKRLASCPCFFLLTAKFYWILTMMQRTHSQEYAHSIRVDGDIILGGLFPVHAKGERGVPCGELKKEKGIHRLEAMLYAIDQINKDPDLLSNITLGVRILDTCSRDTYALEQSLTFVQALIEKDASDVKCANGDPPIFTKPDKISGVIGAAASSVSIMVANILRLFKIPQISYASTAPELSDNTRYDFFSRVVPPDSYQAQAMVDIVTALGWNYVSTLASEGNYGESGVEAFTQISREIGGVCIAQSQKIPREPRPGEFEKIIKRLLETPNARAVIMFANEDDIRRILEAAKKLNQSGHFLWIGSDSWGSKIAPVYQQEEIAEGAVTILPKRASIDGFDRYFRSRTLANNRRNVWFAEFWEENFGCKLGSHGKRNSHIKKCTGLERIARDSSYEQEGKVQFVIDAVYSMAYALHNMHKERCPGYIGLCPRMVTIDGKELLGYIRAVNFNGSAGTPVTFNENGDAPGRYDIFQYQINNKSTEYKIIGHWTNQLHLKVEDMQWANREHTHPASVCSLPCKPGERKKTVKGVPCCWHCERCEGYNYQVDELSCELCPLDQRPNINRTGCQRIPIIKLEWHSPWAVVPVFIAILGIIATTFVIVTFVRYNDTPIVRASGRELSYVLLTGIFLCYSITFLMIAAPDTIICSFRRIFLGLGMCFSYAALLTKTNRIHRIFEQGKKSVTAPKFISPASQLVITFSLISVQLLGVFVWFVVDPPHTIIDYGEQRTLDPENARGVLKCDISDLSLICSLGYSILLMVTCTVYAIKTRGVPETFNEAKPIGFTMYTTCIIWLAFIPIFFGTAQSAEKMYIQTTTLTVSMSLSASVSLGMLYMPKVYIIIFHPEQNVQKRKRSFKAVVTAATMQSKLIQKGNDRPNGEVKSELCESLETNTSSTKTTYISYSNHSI

| Structure (SMILES) | z-score |
| --- | --- |
| Cc1cc2oc(C(=O)Nc3ccc(S(=O)(=O)Nc4nccs4)cc3)cc(=O)c2cc1Cl | 0.715 |
| Cc1ccc2nc(-c3ccccc3Cl)cc(C(=O)Nc3cc(C)on3)c2c1 | -0.595 |
| Cc1ccccc1Cn1c(CN2CCc3ccccc3C2)nc2c1c(=O)n(C)c(=O)n2C | -0.399 |
| C#CCN1C(=O)S/C(=C/c2cc(C)n(CC)c2C)C1=O | -0.153 |
| COC(=O)C1=C(C)N(CCc2ccc(OC)c(OC)c2)C(=O)/C1=C\c1ccc(O)cc1 | -0.422 |
| COc1ccc(-n2c(SCC(=O)NCC3CCCO3)nc3n[nH]c(C)c3c2=N)cc1 (centres undefined) | -0.605 |
| CCOc1cc(/C=N/NC(=O)c2cccc([N+](=O)[O-])c2)ccc1OS(=O)(=O)c1ccccc1 | -0.485 |
| CCN1CCN(C(=O)/C=C\C(=O)O)CC1 | -0.116 |
| CC(C)c1nc(=S)c2ccccc2[nH]1 | active: 13.7 |
| COc1ccccc1CNCC(O)(c1ccc(Cl)cc1)c1ccc(Cl)cc1 | 0.23 |
| CCOC(=O)c1ccc(NC(=O)CSc2nnc(CCc3ccc(C)o3)n2-c2ccccc2)cc1 | -0.0939 |
| CCOc1ccc(C(=O)COC(C)=O)cc1 | -0.0449 |
| COc1ccc(CSc2cccc3cccnc23)cc1[N+](=O)[O-] | 0.224 |
| COc1ccccc1NC(=O)CSc1nc(C)c2c(c1C#N)CCCC2 | 0.0836 |
| CCC(=O)N1CCN(c2ccc(OC)cc2[N+](=O)[O-])CC1 | 0.0077 |
| O=C(O)C1CC=CCC1C(=O)N1CCN(c2nc(-c3ccccc3)c3ccccc3n2)CC1 (centres undefined) | 0.326 |
| Cc1nn(C)c(C)c1/C=N/NC(=O)CCn1nc(C)c([N+](=O)[O-])c1C | 0.0312 |
| Cn1cc(/C=C2/SC(=O)N(CC(=O)Nc3ccc4c(c3)OCO4)C2=O)c2ccccc21 | -0.132 |
| C=CCNC(=O)CN1CCC(n2c(C)nc3cc(C(F)(F)F)ccc32)CC1 | -0.171 |
| COc1ccc(NC(=O)C(c2ccc(C)cc2)N(C)C(=O)CNC(C)=O)cc1 (centres undefined) | -0.116 |
| Nc1cc(N)nc(SCc2ccccc2)n1 | 0.489 |
| CCOC(=O)CN1CC23C=CC(O2)C(C(=O)NCc2ccc(C)cc2)C3C1=O (centres undefined) | 0.904 |
| Cc1ccc(S(=O)(=O)NCC(=O)OC2CCOC2=O)cc1 (centres undefined) | -0.196 |

| Structure (SMILES) | z-score |
| --- | --- |
| CCn1c(SCC(=O)n2nc(C)cc2C)nnc1-c1ccc2c(c1)OCO2 | -0.328 |
| CCN(CC)S(=O)(=O)c1ccc(-c2nnc(SCc3nnc(-c4ccc(C)cc4)o3)n2CC)cc1 | -0.562 |
| CCCc1nc2c(C)ccc(C)c2c(N)c1CC | 0.306 |
| CCOC(=O)Cn1c(CN(C)Cc2ccccc2)nc2c1c(=O)n(C)c(=O)n2C | -0.113 |
| CC(C)CCOc1cccc(OCC(=O)NC2CCS(=O)(=O)C2)c1 (centres undefined) | -0.616 |
| CC(=O)N1CCN(CC(O)COc2ccc(OCc3ccccc3)cc2)CC1 (centres undefined) | 0.0259 |
| O=[N+]([O-])c1nn(-c2ccc(Cl)cc2)n(O)c1=NCc1cccnc1 | -0.181 |
| CC(C)(C)NC(=O)c1cc(C(C)(C)C)c(O)c(C(C)(C)C)c1 | -1.49 |
| Cc1ccc(CNC(=O)/C=C/c2ccc(S(=O)(=O)NCc3ccco3)cc2)cc1 | -0.281 |
| O=C(Nc1ccc(S(=O)(=O)N2CCCCC2)cc1)c1ccccc1Cl | -0.396 |
| COc1ccc(C(C(=O)NC2CCCC2)N(Cc2ccccc2)C(=O)c2nsc(Cl)c2Cl)cc1 (centres undefined) | -0.259 |
| CC(=O)c1ccc(NC(=O)CSc2ccc(-c3ccc4c(c3)OCO4)nn2)cc1 | -0.125 |
| COc1ccc(NC(=O)C23CC4CC(C2)CC(n2cnc(Br)n2)(C4)C3)cc1Cl | -0.254 |
| Cc1ccc(S(=O)(=O)CC(=O)N(C)C)cc1 | 0.306 |
| COc1ccc2nc(NC(=O)c3ccc4ncsc4c3)sc2c1 | -0.549 |
| Cc1ccc(NS(=O)(=O)c2cccc(C(=O)O)c2)c(C)c1 | -0.193 |
| CC(NC(=O)CSc1n[nH]c(=O)n1C1CC1)C12CC3CC(CC(C3)C1)C2 (centres undefined) | 0.17 |
| NS(=O)(=O)c1ccc(Cc2ncc(C(F)(F)F)cc2Cl)s1 | 1.4 |
| COc1ccc(-c2nc(N3CCC(C)CC3)[nH]c(=O)c2C#N)cc1 | -0.122 |
| COC(=O)/C=C1\S/C(=N/NC(=O)c2ccccc2)NC1=O | 0.166 |
| O=C(Nc1cc2c(cc1Br)OCCO2)c1cccs1 | -0.145 |
| O=Cc1c(C(=O)O)n(CC(=O)O)c2ccccc12 | -0.3 |
| CC1CCCCC12NC(=O)N(CC(=O)Nc1ccc(N3CCOCC3)cc1)C2=O (centres undefined) | 0.195 |

| Structure (SMILES) | z-score |
| --- | --- |
| Clc1cccc(CN2CCCCCCC2)c1Cl | -0.146 |
| NC(=O)c1cccc(S(=O)(=O)N2CC(c3ccccc3)CC2=O)c1 (centres undefined) | -0.131 |
| Cc1ccc(CSc2nnc(-c3ccncc3)n2C)cc1 | -0.0782 |
| COc1ccc(/C=N/n2c(SC)nnc2-c2ccccc2)c(OC)c1OC | -1.34 |
| Cc1nc2ncnn2c(C)c1Cc1ccc(Cl)cc1 | 0.288 |
| Cn1c(=O)n(C)c2cc([N+](=O)[O-])c(N3CCN(C(=O)c4ccccc4)CC3)cc21 | -0.941 |
| CC1Oc2ccccc2OC1(O)c1ccc2ccccc2n1 (centres undefined) | -0.351 |
| Cc1c(/C(O)=C2/C(=O)C(=O)N(CCN3CCOCC3)C2c2cccnc2)cnn1-c1ccccc1 (centres undefined) | -0.0944 |
| CN(C)c1ccnc(NCc2ccccc2)c1C#N | -0.278 |
| COc1ccc(/C=C2/SC(=O)N(NS(=O)(=O)c3ccccc3)C2=S)cc1OC | 0.0153 |
| O=C(Nc1ccccc1-c1nnc(SCc2ccc(Cl)cc2)o1)c1ccccc1 | -0.0734 |
| O=C(Nc1cccc([N+](=O)[O-])c1)c1ccc2c(c1)OCCO2 | -0.11 |
| COc1cccc(-c2ccc(-c3noc(-c4ccccc4F)n3)c(OC)n2)c1 | 0.0189 |
| O=C(NCCO)C1(c2ccccc2)CCCC1 | 0.764 |
| CCCC(C)NS(=O)(=O)c1ccccc1 (centres undefined) | -0.232 |
| CCCc1nc(SCc2ccccn2)c2c(=O)n(C)c(=O)n(C)c2n1 | -2.21 |
| CC(NC(=O)c1cccc(C(F)(F)F)c1)C1CCCO1 (centres undefined) | 0.45 |
| CN(CCOCCOc1ccc2ccccc2c1)Cc1ccccc1 | 1.96 |
| COc1ccc(NC(=O)Cn2nc(Cc3cccnc3)c3ccccc3c2=O)cc1OC | -1.21 |
| O=C(O)c1oc2ccccc2c1-n1cccc1 | -1.47 |
| COC(=O)c1noc(-c2ccc(C)cc2)n1 | -1.31 |
| CC1CCC(N2CC(=O)N(Cc3ccc4c(c3)OCO4)C(c3ccc(F)cc3)C2=O)CC1 (centres undefined) | 0.0939 |
| CCCCOc1cccc(C(=O)NC(=S)Nc2cccc(C(F)(F)F)c2)c1 | 1.84 |

From PubChem BioAssay AID488969 (Vanderbilt High Throughput Screening Facility, 2010)
